Measured values taken from patent publication US8415399B2, “Retrovirus-infection inhibitor” (Nagasaki University, priority 2006, dated 2013).

System: VSV-G protein (VSV vector)
Type: cell-based, vesicular stomatitis virus (VSV)

Question: With `CC(C)=CCC/C(C)=C/CC/C(C)=C/C=C/C(C)=C/C(=O)O` [NIK-333] as the molecule, how does the “infection with VSV-G protein” value read?
Answer: suppressed
